Data from the supplement of paper PMC12217912.
This is one part of the list. The full chains were built here from the parent and the listed change. Values near 0.05 are background.

B1: TEV protease; numbered along this chain (parent)
chain: MGESLFKGPRDYNPISSSICHLTNESDGHTTSLYGIGFGPFIITNKHLFRRNNGTLVVQSLHGVFKVKDTTTLQQHLVDGRDMIIIRMPKDFPPFPQKLKFREPQREERICLVTTNFQTKSMSSMVSDTSCTFPSGDGIFWKHWIQTKDGQCGSPLVSTRDGFIVGIHSASNFTNTNNYFTSVPKNFMELLTNQEAQQWVSGWRLNADSVLWGGHKVFMVKPEEPFQPVKEATQL

Variants of: B1
Assay: raw area under fraction-flipped curve 0-4 h after induction (AUC4h, not background-subtracted), DNA-recorder readout of cleavage of the substrate (dimensionless); higher = more cleavage of the substrate by the protease variant
Details: temperature: 34 °C; time window: 0-4 h after rhamnose induction
Experimental: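 In vivo DNA recorder in E. coli TOP10(DE3) ΔrhaA at 34 °C. Each TEVp single-site mutant (parent TEVp 0) is paired with a single-site variant of the 7-mer TEVs (canonical ENLYFQ|S). The substrate sits between flexible linkers in a Bxb1-sfGFP-TEVs-SsrA fusion, so cleavage stabilises Bxb1 and speeds flipping of a recombination array, read by NGS. The value is the raw area under the fraction-flipped curve over 0-4 h after rhamnose induction (AUC4h), with ≥20 reads per time point. It is not background-subtracted; inactive controls average about 0.047.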
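Also: Bxb1 expression induced with 0.2% (w/v) L-rhamnose at OD600 near 0.5, cultures sampled hourly, flipped fraction per protease–substrate barcode pair counted by paired-end Illumina sequencing.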

## MGESLFKGPRDYNPISSSICHLTNESDGHTTSLYGIGFGPFIITNKHLFRRNNGTLVVQSLHGVFKVKDTTTLQQHLVDGRDMIIIRMPKDFPPFPQKLKFREPQREERICLVTTNFQTKSMSSMVSDTSCTFPVGDGIFWKHWIQTKDGQCGSPLVSTRDGFIVGIHSASNFTNTNNYFTSVPKNFMELLTNQEAQQWVSGWRLNADSVLWGGHKVFMVKPEEPFQPVKEATQL [S135V]
  area with substrate ENLYFQD: 0.068
  area with substrate ENLYFQF: 0.0471
  area with substrate ENLYFQG: 0.0749
  area with substrate ENLYFQI: 0.0787
  area with substrate ENLYFQK: 0.0756
  area with substrate ENLYFQL: 0.061
  area with substrate ENLYFQM: 0.0687
  area with substrate ENLYFQN: 0.0496
  area with substrate ENLYFQP: 0.0752
  area with substrate ENLYFQQ: 0.0472
  area with substrate ENLYFQS: 0.0781
  area with substrate ENLYFQT: 0.045
  area with substrate ENLYFQV: 0.0393
  area with substrate ENLYFQW: 0.0651
  area with substrate ENLYFQY: 0.055

## MGESLFKGPRDYNPISSSICHLTNESDGHTTSLYGIGFGPFIITNKHLFRRNNGTLVVQSLHGVFKVKDTTTLQQHLVDGRDMIIIRMPKDFPPFPQKLKFREPQREERICLVTTNFQTKSMSSMVSDTSCTFPSGDGIFRKHWIQTKDGQCGSPLVSTRDGFIVGIHSASNFTNTNNYFTSVPKNFMELLTNQEAQQWVSGWRLNADSVLWGGHKVFMVKPEEPFQPVKEATQL [W141R]
  area with substrate ENLYFQD: 0.0793
  area with substrate ENLYFQF: 0.0512
  area with substrate ENLYFQK: 0.0661
  area with substrate ENLYFQL: 0.0543
  area with substrate ENLYFQM: 0.0416
  area with substrate ENLYFQN: 0.0575
  area with substrate ENLYFQP: 0.0561
  area with substrate ENLYFQR: 0.0438
  area with substrate ENLYFQS: 0.0583
  area with substrate ENLYFQW: 0.0664
  area with substrate ENLYFQY: 0.0491

## MGESLFKGPRDYNPISSSICHLTNESDGHTTSLYGIGFGPFIITNKHLFRRNNGTLVVQSLHGVFKVKDTTTLQQHLVDGRDMIIIRMPKDFPPFPQKLKFREPQREERICLVTTNFQTKSMSSMVSDTSCTFPSGDGIFWKHWIQTKDGQCGSPLVSTRDGFIVLIHSASNFTNTNNYFTSVPKNFMELLTNQEAQQWVSGWRLNADSVLWGGHKVFMVKPEEPFQPVKEATQL [G166L]
  area with substrate ENLYFQD: 0.0585
  area with substrate ENLYFQG: 0.0449
  area with substrate ENLYFQK: 0.0615
  area with substrate ENLYFQM: 0.0546
  area with substrate ENLYFQP: 0.0448
  area with substrate ENLYFQS: 0.0516

## MGESLFKGPRDYNPISSSICHLTNESDGHTTSLYGIGFGPFIITNKHLFRRNNGTLVVQSLHGVFKVKDTTTLQQHLVDGRDMIIIRMPKDFPPFPQKLKFREPQREERICLVTTNFQTKSMSSMVSDTSCTFPSGDGIFWKHWIQTKDGQCGSPLVSTRDGFIVGIHSASNFTNTNNYETSVPKNFMELLTNQEAQQWVSGWRLNADSVLWGGHKVFMVKPEEPFQPVKEATQL [F180E]
  area with substrate ENLYFQD: 0.0612
  area with substrate ENLYFQG: 0.0505
  area with substrate ENLYFQI: 0.0518
  area with substrate ENLYFQK: 0.054
  area with substrate ENLYFQL: 0.0382
  area with substrate ENLYFQP: 0.0557
  area with substrate ENLYFQR: 0.0536
  area with substrate ENLYFQS: 0.055
  area with substrate ENLYFQW: 0.0503
  area with substrate ENLYFQY: 0.069

## MGESLFKGPRDYNPISSSICHLTNESDGHTTSLYGIGFGPFIITNKHLFRRNNGTLVVQSLHGVFKVKDTTTLQQHLVDGRDMIIIRMPKDFPPFPQKLKFREPQREERICLVTTNFQTKSMSSMVSDTSCTFPSGDGIFWKHWIQTKDGQCGSPLVSTRDGFIVGIHSASNFTNTNNYFTSVPKNFMELLTGQEAQQWVSGWRLNADSVLWGGHKVFMVKPEEPFQPVKEATQL [N193G]
  area with substrate ENLYFQD: 0.0721
  area with substrate ENLYFQR: 0.0524
  area with substrate ENLYFQS: 0.0942
  area with substrate ENLYFQT: 0.0677
  area with substrate ENLYFQW: 0.0689
  area with substrate ENLYFQY: 0.0883

## MGESLFKGPRDYNPISSSICHLTNESDGHTTSLYGIGFGPFIITNKHLFRRNNGTLVVQSLHGVFKVKDTTTWQQHLVDGRDMIIIRMPKDFPPFPQKLKFREPQREERICLVTTNFQTKSMSSMVSDTSCTFPSGDGIFWKHWIQTKDGQCGSPLVSTRDGFIVGIHSASNFTNTNNYFTSVPKNFMELLTNQEAQQWVSGWRLNADSVLWGGHKVFMVKPEEPFQPVKEATQL [L73W]
  area with substrate ENLYFQE: 0.0698
  area with substrate ENLYFQH: 0.0674
  area with substrate ENLYFQL: 0.0567
  area with substrate ENLYFQM: 0.0619
  area with substrate ENLYFQN: 0.0591
  area with substrate ENLYFQQ: 0.0564
  area with substrate ENLYFQR: 0.0505
  area with substrate ENLYFQS: 0.0666
  area with substrate ENLYFQT: 0.0489
  area with substrate ENLYFQV: 0.0577
  area with substrate ENLYFQY: 0.0655

## MGESLFKGPRDYNPISSSICHLTNESDGHTTSLYGIGFGPFIITNKHLFRRNNGTLVVQSLHGVFKVKDTTTLQQHWVDGRDMIIIRMPKDFPPFPQKLKFREPQREERICLVTTNFQTKSMSSMVSDTSCTFPSGDGIFWKHWIQTKDGQCGSPLVSTRDGFIVGIHSASNFTNTNNYFTSVPKNFMELLTNQEAQQWVSGWRLNADSVLWGGHKVFMVKPEEPFQPVKEATQL [L77W]
  area with substrate ENLYFQE: 0.042
  area with substrate ENLYFQF: 0.0465
  area with substrate ENLYFQH: 0.0629
  area with substrate ENLYFQI: 0.0613
  area with substrate ENLYFQL: 0.0514
  area with substrate ENLYFQM: 0.0719
  area with substrate ENLYFQP: 0.0561
  area with substrate ENLYFQR: 0.0601
  area with substrate ENLYFQS: 0.0731
  area with substrate ENLYFQT: 0.0635
  area with substrate ENLYFQW: 0.0843

## MGESLFKGPRDYNPISSSICHLTNESDGHTTSLYGIGFGPFIITNKHLFRRNNGTLVVQSLHGVFKVKDTTTLQQHLVDGRDMIIIRMPKDFPPFPQKLIFREPQREERICLVTTNFQTKSMSSMVSDTSCTFPSGDGIFWKHWIQTKDGQCGSPLVSTRDGFIVGIHSASNFTNTNNYFTSVPKNFMELLTNQEAQQWVSGWRLNADSVLWGGHKVFMVKPEEPFQPVKEATQL [K100I]
  area with substrate ENLYFQE: 0.045
  area with substrate ENLYFQF: 0.0758
  area with substrate ENLYFQI: 0.0702
  area with substrate ENLYFQM: 0.0777
  area with substrate ENLYFQP: 0.0464
  area with substrate ENLYFQQ: 0.0665
  area with substrate ENLYFQS: 0.102
  area with substrate ENLYFQT: 0.0578
  area with substrate ENLYFQW: 0.07

## MGESLFKGPRDYNPISSSICHLTNESDGHTTSLYGIGFGPFIITNKHLFRRNNGTLVVQSLHGVFKVKDTTTLQQHLVDGRDMIIIRMPKDFPPFPQKLKFREPQREERICLVTTNFQTKSMSSMVSDTSCTFPSGDGIFWKHWIQTKDGQCGSPLVSTRDGFIVGIHSASNFTNTNNYFTSVPKNFMELLTNQEAQQWVSGWRLNADSVLWGGHKVFMVKPEEDFQPVKEATQL [P225D]
  area with substrate ENLYFQE: 0.0593
  area with substrate ENLYFQG: 0.103
  area with substrate ENLYFQH: 0.068
  area with substrate ENLYFQI: 0.0429
  area with substrate ENLYFQN: 0.0821
  area with substrate ENLYFQR: 0.0685
  area with substrate ENLYFQS: 0.103

## MGESLFKGPRDYNPISSSICHLTNESDGHTTSLYGIGFGPFIITNKHLFRRNNGTLVVQSLHGVFKVKDTTTLQQHLVDGRDMIIIRMPKDFPPFPQKLKFREPQREERICLVTTNFQTKSMSSMVSDTSCTFPSGDGIFWKHWIQTKDGQCGSPLVSTRDGFIVGIHSASNFTNTNNYFTSVPKNFMELLTNQEAQQWVSGWRLNADSVLWGGHKVFMVKPEEPIQPVKEATQL [F226I]
  area with substrate ENLYFQE: 0.0723
  area with substrate ENLYFQF: 0.112
  area with substrate ENLYFQG: 0.101
  area with substrate ENLYFQI: 0.046
  area with substrate ENLYFQL: 0.0546
  area with substrate ENLYFQN: 0.0916
  area with substrate ENLYFQP: 0.0655
  area with substrate ENLYFQR: 0.0827
  area with substrate ENLYFQS: 0.113
  area with substrate ENLYFQT: 0.076
  area with substrate ENLYFQV: 0.0728
  area with substrate ENLYFQW: 0.0784
  area with substrate ENLYFQY: 0.0662

## MGESLYKGPRDYNPISSSICHLTNESDGHTTSLYGIGFGPFIITNKHLFRRNNGTLVVQSLHGVFKVKDTTTLQQHLVDGRDMIIIRMPKDFPPFPQKLKFREPQREERICLVTTNFQTKSMSSMVSDTSCTFPSGDGIFWKHWIQTKDGQCGSPLVSTRDGFIVGIHSASNFTNTNNYFTSVPKNFMELLTNQEAQQWVSGWRLNADSVLWGGHKVFMVKPEEPFQPVKEATQL [F6Y]
  area with substrate ENLYFQF: 0.0533
  area with substrate ENLYFQG: 0.0725
  area with substrate ENLYFQI: 0.0768
  area with substrate ENLYFQL: 0.0624
  area with substrate ENLYFQS: 0.0656
  area with substrate ENLYFQW: 0.0727
